Laboratory results taken from PubChem BioAssay AID485281 (National Center for Advancing Translational Sciences (NCATS), 2010).
Where “and” joins values, the source holds several entries; their conditions need not be identical. Identical values can stand only once. Among all 350,000 compounds or so, about 260 (0.074%) were called active. This list was built around the results that the source calls inconclusive (neither active nor inactive); the mix of calls is not that of the screen. Calls come from the whole dose curve; as a rule, active = well fitted inhibition curve with a large enough effect; inconclusive = small, poorly fitted or top-dose-only effect; inactive = no such curve, though single readings can be large or run the other way. A potency beside an inconclusive call is a rough fit, not a confirmed value.

target: Ferritin light chain (Equus caballus) (UniProt P02791); assay: qHTS Assay for Identification of Novel General Anesthetics; settings: apoferritin/1-aminoanthracene competitive binding, fluorescence; series mostly up to 77.5 µM; note: nearly all actives have a fitted effect of over 20% in size
How it was run: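 Horse-spleen apoferritin (10 uM) was mixed with 50% saturated 1-aminoanthracene in PBS, exposed to compounds for 10 min at room temperature, and read for fluorescence (ex 380 nm, em 535 nm). Competitive displacement was fitted with a four-parameter Hill equation.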
Potency is the fitted concentration of half-maximal effect; tags give direction and shape of the fitted curve.

Chain of UniProt P02791 (P02791 whole entry, looked up): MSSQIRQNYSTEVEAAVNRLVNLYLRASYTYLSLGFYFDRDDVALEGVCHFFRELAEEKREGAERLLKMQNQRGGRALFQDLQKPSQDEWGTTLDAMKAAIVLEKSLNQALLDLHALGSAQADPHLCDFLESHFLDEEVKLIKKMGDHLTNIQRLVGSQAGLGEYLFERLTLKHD

SMILES	Potency
CC(C)OC(=O)c1ccc(COC(=O)CNC(=O)c2ccco2)cc1	inactive
NC(=S)NC1CC2CC1C1C=CCC21 (configuration not stated)	inconclusive: 25.1 µM [inhibitor, partial curve]
CCN(CC)S(=O)(=O)c1cc(OCC(N)=O)c(C)cc1Cl	inconclusive: 28.2 µM [inhibitor, partial curve]
CCc1ccc(/C=C2/SC(=S)N(CC(=O)Nc3nc4ccccc4s3)C2=O)cc1	inconclusive: 3.55 µM [inhibitor, full curve, poor fit]
CC1CCC2C(=O)N(c3cccc(C(=O)Nc4ccc(F)cc4)c3)C(=O)C2C1 (configuration not stated)	inconclusive: 22.4 µM [inhibitor, partial curve]
CC(C)C(=O)n1nc(-c2cccnc2)nc1NCc1ccc(F)cc1	inactive
Cc1cc(C)n(-c2ccc(N3CCOCC3)nn2)n1	inactive
CCOC(=O)C1=NNC(C(=O)c2ccccc2)C1c1ccc(C)cc1 (configuration not stated)	inconclusive: 28.2 µM [inhibitor, single point]
O=C(NCCc1ccccc1)c1ccc2nc3cc(Cl)ccc3c(=O)n2c1	inactive
O=C1Nc2cc(C(=O)N3CCN(c4ccc(F)cc4)CC3)ccc2NC1CSCc1cccc(F)c1 (configuration not stated)	inconclusive: 50.1 µM [inhibitor, partial curve, poor fit]
Cc1ccccc1NC(=O)C12CC3CCC1(C)C3(C)CO2 (configuration not stated)	inconclusive: 14.1 µM [inhibitor, partial curve]
COc1nc(-c2ccccc2)ccc1-c1noc(-c2ccccc2)n1	inactive
Nc1ccccc1C(=O)NCc1ccc(F)cc1	inconclusive: 35.5 µM [inhibitor, partial curve]
COc1ccc(OC)c(C2CC(=O)N3CN(c4cccc(Cl)c4)CSC3=C2C#N)c1 (configuration not stated)	inconclusive: 44.7 µM [inhibitor, single point]
CCC1(C)CC(c2csc(N)n2)CCO1 (configuration not stated)	inconclusive: 15.8 µM [inhibitor, partial curve]
CCOC(=O)C1CCN(C(=O)C2CCN(S(=O)(=O)c3c(C)noc3/C=C/c3ccc(C)cc3)CC2)CC1	inconclusive: 8.91 µM [inhibitor, full curve]
CCOc1ccc(C2c3cc(OC)c(OC)cc3CC(=O)N2c2ccc(OC)cc2)cc1 (configuration not stated)	inconclusive: 35.5 µM [inhibitor, partial curve]
Cc1n[nH]c(=O)c2c(NC(=O)CSc3nc4ccccc4c(=O)n3CCCOC(C)C)oc(C)c12	inconclusive: 28.2 µM [inhibitor, partial curve]
CC/C(=C(\c1ccccc1)c1ccc(OCCN(C)C)cc1)c1ccccc1	inconclusive: 28.2 µM [inhibitor, partial curve] and inconclusive: 22.4 µM [inhibitor, partial curve]
O=S(=O)(Nc1ccc2c(c1)OCO2)c1cccs1	inconclusive: 35.5 µM [inhibitor, partial curve]
COc1c(C)cc(C(=O)C2CCCN(C(=O)c3ccc4[nH]ccc4c3)C2)cc1C (configuration not stated)	inconclusive: 39.8 µM [inhibitor, single point]

SMILES	Potency
CCc1oc2ccccc2c1C(=O)c1cc(Br)c(O)c(Br)c1	inactive
O=C(COc1ccc(Br)cc1)N1CCCCCC1	inconclusive: 35.5 µM [inhibitor, partial curve]
CC(C)(C)OC(=O)N1CCNc2ccccc2C1	inactive
CCOc1ccc(CC(=O)Nc2cccc(-c3ccc4nnc(C)n4n3)c2)cc1	inconclusive: 28.2 µM [inhibitor, single point]
O=C(CCOc1ccccc1F)N1CCN(c2ccccc2O)CC1	inactive
CCCOc1ccc2c3c(c(=O)oc2c1OCCC)CCCC3	inconclusive: 28.2 µM [inhibitor, partial curve]
Cc1ccc(C)c(S(=O)(=O)N2CCN(C(=O)c3ccc(N4CCCC4)c([N+](=O)[O-])c3)CC2)c1	inconclusive: 10 µM [inhibitor, partial curve]
NNC(=O)c1csc(-c2cccc(C(F)(F)F)c2)n1	inconclusive: 31.6 µM [inhibitor, partial curve]
C=CCOc1c(Br)cc(CNc2ccc(NC(=O)C(C)C)c(OC)c2)cc1OCC	inconclusive: 31.6 µM [inhibitor, single point]
Cc1ccc(NC(=O)c2ccc(=O)n(CC(=O)Nc3c(C)cc(C)cc3C)n2)cc1	inconclusive: 28.2 µM [inhibitor, partial curve] and inconclusive: 17.8 µM [inhibitor, partial curve]
CCCCn1nnc(NC(=O)CC23CC4CC(CC(C4)C2)C3)n1	inconclusive: 35.5 µM [inhibitor, single point]
c1ccc(Oc2nc(NC3CCCCC3)c3[nH]cnc3n2)cc1	inactive
COc1cccc(CNc2ccc([N+](=O)[O-])cc2Cl)c1O	inconclusive: 50.1 µM [inhibitor, single point]
CC(C)Oc1ccc(CN=C(N)N=C(N)N)cc1Cl	inconclusive: 44.7 µM [inhibitor, single point]
Cc1ccc(S(=O)(=O)N(CC(O)Cn2c3ccccc3c3ccccc32)c2cccc(C(=O)N(C)C)c2)cc1 (configuration not stated)	inactive
COc1ccc(C2=NN(S(C)(=O)=O)C(c3cn(-c4ccccc4)nc3-c3cccs3)C2)cc1 (configuration not stated)	inactive
Cc1nc(C)c(-c2csc(Nc3ccc(O)c(C(=O)O)c3)n2)s1	inactive
O=C(CC1C(=O)NCCN1Cc1ccc(Cl)c(F)c1)NC1CCCCC1 (configuration not stated)	inconclusive: 25.1 µM [inhibitor, partial curve]
CCN(C(=O)C1CCC(CNS(=O)(=O)c2cccc3nsnc23)CC1)c1cccc(C)c1 (configuration not stated)	inconclusive: 28.2 µM [inhibitor, partial curve]
Cc1ccc(Oc2nc3c(c(=O)n(Cc4ccccc4)c(=O)n3C)n2C)cc1C	inconclusive: 5.62 µM [inhibitor, partial curve]
CCOC(=O)C1(CCCc2ccccc2)CCN(C(=O)CN2C(=O)CSC2=O)CC1	inconclusive: 25.1 µM [inhibitor, partial curve]
